# Source: the supplement of paper PMC11880418
# Where a name gives a salt, the structure may show the parent alone. This is one part of the list. The data scatter; read single values as rough.
# Test system: T84
# Assay: ALDHbr (CSC) cell proportion score relative to DMSO vehicle (ratio to DMSO); breast (SUM159) / gastric (MKN45) / pancreatic (PANC1) / colon cancer lines; ALDHbr cells have high ALDH activity and are rich in cancer stem cells (CSC); higher = more CSC (ALDHbr) cells remaining
# Details: 10 µM; 72 h
# 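Further: High-content imaging of ALDEFLUOR-stained cells with Hoechst-labelled nuclei in 384-well plates, triplicate wells, scored as Z-score against 0.1% DMSO vehicle, negative meaning fewer ALDHbr cells.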
row,Structure (SMILES),ALDHbr
1,Clc1ccc2c(c1)CCc1cccnc1C2=C1CCNCC1 [Desloratadine],0.592
2,COc1ccc2c(c1)c(CC(=O)OCC(=O)O)c(C)n2C(=O)c1ccc(Cl)cc1 [Acemetacin],1.01
3,CCCc1nn(C)c2c(=O)[nH]c(-c3cc(S(=O)(=O)N4CCN(C)CC4)ccc3OCC)nc12 [Sildenafil],0.994
4,CCOC(=O)C1=C(C)NC(C)=C(C(=O)OC)C1c1cccc([N+](=O)[O-])c1 (stereo not drawn) [Nitrendipine],1.05
5,Cc1[nH]cnc1CN1CCc2c(c3ccccc3n2C)C1=O [Alosetron hydrochloride],0.995
6,CO/N=C1\CN(c2nc3c(cc2F)c(=O)c(C(=O)O)cn3C2CC2)CC1CN (stereo not drawn) [Gemifloxacin mesylate],0.948
7,CC(C(=O)O)c1ccc(C(=O)c2cccs2)cc1 (stereo not drawn) [Suprofen],0.902
8,Nc1ccc(C(=O)O)c(O)c1 [4-aminosalicylic acid],0.925
9,C[C@H]1[C@H](NC(=O)/C(=N\OC(C)(C)C(=O)O)c2csc(N)n2)C(=O)N1S(=O)(=O)O [Aztreonam],1.05
10,COC(=O)C1=C(C)NC(C)=C(C(=O)OC2CCCN(Cc3ccccc3)C2)C1c1cccc([N+](=O)[O-])c1 (stereo not drawn) [Benidipine hydrochloride],0.622
11,C[N+](C)(CCOc1ccccc1)Cc1ccccc1.O=C([O-])c1cc2ccccc2cc1O [Bephenium hydroxynaphthoate],0.993
12,O=c1cc(-c2ccc(O)c(O)c2)oc2cc(O)cc(O)c12 [Luteolin],0.691
13,CN(C)CCOC(c1ccccc1)c1ccccc1.Cn1c(=O)c2[nH]c(Cl)nc2n(C)c1=O [Dimenhydrinate],1.04
14,CC(N)CCCC(C)(C)O (stereo not drawn) [Heptaminol hydrochloride],0.976
15,COc1ccccc1OCC(O)CO (stereo not drawn) [Guaifenesin],0.948
16,Cc1cccc(C)c1OCC(=O)N[C@@H](Cc1ccccc1)[C@@H](O)C[C@H](Cc1ccccc1)NC(=O)[C@H](C(C)C)N1CCCNC1=O [Lopinavir],0.491
17,N=C(N=C(N)N)N1CCOCC1 [Moroxidine hydrochloride],0.98

row,Structure (SMILES),ALDHbr
1,CC(=O)NCCCS(=O)(=O)O [Acamprosate calcium],0.926
2,O=C1c2ccccc2S(=O)(=O)N1CCCCN1CCN(c2ncccn2)CC1 [Ipsapirone],0.81
3,CN1C(C(=O)Nc2ccccn2)=C(O)c2sccc2S1(=O)=O [Tenoxicam],0.91
4,CC1(C)[C@@H](OC(=O)CCC(=O)O)CC[C@]2(C)[C@H]3C(=O)C=C4[C@@H]5C[C@@](C)(C(=O)O)CC[C@]5(C)CC[C@@]4(C)[C@]3(C)CC[C@@H]12 [Carbenoxolone disodium salt],1.02
5,CC(C)[C@H](N)C(=O)OCCOCn1cnc2c(=O)nc(N)[nH]c21 [Valacyclovir hydrochloride],0.996
6,C[C@]12C[C@H](O)[C@H]3[C@@H](CCC4=CC(=O)CC[C@@]43C)[C@@H]1CC[C@@H]2C(=O)CO [Corticosterone],1.02
7,COC(=O)C1=C(C)NC(C)=C(C(=O)OC(C)C)C1c1cccc2nonc12 (stereo not drawn) [Isradipine],0.869
8,CN1CCN2c3ccccc3Cc3ccccc3C2C1 (stereo not drawn) [Mianserine hydrochloride],1.01
9,Cc1cc(O)c(C(=O)N[C@@H](C(=O)N[C@@H]2C(=O)N3C(C(=O)O)=C(CSc4nnnn4C)CS[C@H]23)c2ccc(O)cc2)cn1 [Cefpiramide],0.977
10,C=CCOC(Cn1ccnc1)c1ccc(Cl)cc1Cl (stereo not drawn) [Enilconazole],0.829
11,c1ccc2[nH]c(-c3cscn3)nc2c1 [Tiabendazole],0.96
12,COc1ccc(C[C@@H]2c3cc(OC)c(OC)cc3CC[N@+]2(C)CCC(=O)OCCCCCOC(=O)CC[N@@+]2(C)CCc3cc(OC)c(OC)cc3[C@H]2Cc2ccc(OC)c(OC)c2)cc1OC [Cisatracurium besylate],0.811
13,CC(C)Cn1cnc2c(N)nc3ccccc3c21 [Imiquimod],0.906
14,CCC(=O)O[C@@H](O[P@](=O)(CCCCc1ccccc1)CC(=O)N1C[C@H](C2CCCCC2)C[C@H]1C(=O)O)C(C)C [Fosinopril],0.895
15,CN1CCN(c2c(F)cc3c(=O)c(C(=O)O)cn4c3c2SCC4)CC1 [Rufloxacin],1.09
16,CN(C)CCC=C1c2ccccc2COc2ccccc21 [Doxepin hydrochloride],0.888
